Source: PubChem BioAssay AID1345083 (National Center for Advancing Translational Sciences (NCATS), 2018)
Hit rate of the full screen: of about 94,000 compounds, about 6,200 (6.6%) were called active. Inconclusive results, whose numbers are uncertain, are shown with a selection of clear calls. Calls come from the whole dose curve; as a rule, active = well fitted inhibition curve with a large enough effect; inconclusive = small, poorly fitted or top-dose-only effect; inactive = flat fitted curve, though single readings scatter. Where the call is inconclusive, the potency comes from a doubtful curve fit.

Assay: Cytotoxic Profiling in HEK 293 Cell Line of Diverse Libraries Using Quantitative High-Throughput Screening; note: nearly all actives have a fitted effect of over 60% in size
Details: HEK 293 viability, ATP luminescence (CellTiter-Glo), 48-72 h; series mostly up to 115 µM
Method in brief: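 Luminescence from cellular ATP, measured with CellTiter-Glo, indicates HEK 293 viability. Cells plated at 250 cells/well are treated with compound for 48 or 72 hr at 37 degree Celsius before reagent addition.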
Potency is the fitted concentration of half-maximal effect; tags give direction and shape of the fitted curve.

| Structure (SMILES) | Potency |
| --- | --- |
| Cc1ccc(-c2noc([C@@H]3CCCN3C(=O)Cc3cccc(C)c3)n2)cc1 | inconclusive: 50.1 µM [inhibitor, partial curve, poor fit] |
| Cc1ccccc1-c1cnc2[nH]cc(CC(=O)NCc3cccnc3)c2c1 | active: 79.4 µM |
| COc1ccc2[nH]c3c(c2c1)CCNC31CCN(C(=O)c2cnc(C)cn2)CC1 | inconclusive: 28.2 µM [inhibitor, full curve] |
| Cc1nn(C)c(C)c1S(=O)(=O)N1CCCC1c1noc(COc2ccc(F)cc2)n1 (centres undefined) | inconclusive: 100 µM [inhibitor, partial curve, poor fit] |
| COc1cc(N2C[C@H]3OC(=O)N(Cc4ccccc4OC)[C@H]3C2)ncn1 | inconclusive: 50.1 µM [inhibitor, partial curve, poor fit] |
| CCCCNC(=O)c1ccc2c(c1)N(C(=O)c1ccc(OC)cc1)CC2 | inconclusive: 79.4 µM [inhibitor, partial curve, poor fit] |
| CCCC(O)CN1CCC(=O)N(CC)Cc2cc(F)ccc21 (centres undefined) | inconclusive: 89.1 µM [inhibitor, single point] |
| Cc1ccc(S(=O)(=O)N2CCC(n3cnnc3-c3ccccc3)CC2)c(C)c1 | inconclusive: 44.7 µM [inhibitor, partial curve] |
| COc1ccccc1-c1cccc(CN2CCC(NC(=O)Cc3ccc(F)cc3)CC2)c1 | inconclusive: 44.7 µM [inhibitor, partial curve, poor fit] |
| O=C(c1ccc(C(F)(F)F)cc1)N1CCCC(C(=O)N2CCC(c3nc4ncccc4[nH]3)CC2)C1 (centres undefined) | inactive |
| CCn1ncc(N2CCCC(CC(=O)Nc3ccc(C)cc3C)C2)cc1=O (centres undefined) | inactive |
| CCc1nc2c(c(-c3ccc(Cl)cc3)n1)CCN(CC1CC1)CC2 | inconclusive: 112 µM [inhibitor, partial curve, poor fit] |
| O=C(c1ccoc1)N1CCN(C(=O)c2nnn3c2COC(c2ccc(Cl)cc2)C3)CC1 (centres undefined) | inconclusive: 50.1 µM [inhibitor, partial curve, poor fit] |
| COc1ccc(-c2nc3cnccn3c2NCCC(=O)O)cc1 | inactive |
| O=C(c1cc(C2CC2)[nH]n1)N1CCC2(CC1)NC(=O)N(c1ccc(F)cc1)N2 | inconclusive: 17.8 µM [inhibitor, full curve] |
| Cc1cc(-c2cnc(Nc3ccc(F)cc3)c3c2CCO3)ccn1 | inconclusive: 100 µM [inhibitor, partial curve, poor fit] |
| CC(C)Cn1c(=O)c(C(=O)NCCc2ccc(F)cc2)nc2cccnc21 | inconclusive: 50.1 µM [inhibitor, partial curve, poor fit] |
| CCOC(=O)[C@@H]1CN(C(=O)NC2CCCC2)[C@H]2c3cccc(F)c3O[C@@H]12 | inconclusive: 17.8 µM [inhibitor, full curve, poor fit] |
| COc1ccc2c(c1)C(COCc1ccccc1)CC(C)(C)CO2 (centres undefined) | inconclusive: 79.4 µM [inhibitor, partial curve] |
| COc1ccc(CN2C[C@H]3CN(Cc4ccc(OC(F)(F)F)cc4)CCN3C2=O)cc1 | inconclusive: 44.7 µM [inhibitor, partial curve, poor fit] |
| COCC(=O)N1CCCC(C(=O)N2CCCC(c3nc4ncccc4[nH]3)C2)C1 (centres undefined) | inactive |
| COCCNC(=O)C(C)N1C(=O)COc2ccc(C(=O)COc3ccc(C)c(C)c3)cc21 (centres undefined) | inconclusive: 100 µM [inhibitor, single point] |

| Structure (SMILES) | Potency |
| --- | --- |
| CN(C)C(=O)c1ccc2c(c1)NC(C)(COc1ccc3[nH]ccc3c1)CO2 (centres undefined) | inconclusive: 79.4 µM [inhibitor, partial curve] |
| CNC(=O)NC[C@H]1CCN(Cc2ccc(OC)cc2OC)C[C@H]1N(C)C | inactive |
| O=C(Cc1cccc(F)c1)N1CCC(Oc2ccccc2-c2nc(C3CC3)no2)C1 (centres undefined) | inconclusive: 56.2 µM [inhibitor, partial curve, poor fit] |
| COc1ccccc1Cc1nccc(C2(c3ccccc3Cl)CCNCC2)n1 | inconclusive: 50.1 µM [inhibitor, partial curve, poor fit] |
| Cc1ccsc1CN(C)C(=O)C1CCCN(C2CCN(C(=O)C3CC3)CC2)C1 (centres undefined) | inactive |
| O=C(CCc1conc1-c1ccccc1F)NCC1CCCCC1 | inconclusive: 70.8 µM [inhibitor, partial curve, poor fit] |
| CNC(=O)N1CCC(C2CCN(C(=O)CCc3ccc(OC)cc3)C2)CC1 (centres undefined) | inactive |
| CN(C)c1nc(C2CC(N)C2)cc(N(C)Cc2cnn(C)c2)n1 (centres undefined) | inconclusive: 89.1 µM [inhibitor, single point] |
| Cc1ccc([S+](=O)([O-])N2CCN(C(=O)c3nc4cccnc4n(C4CC4)c3=O)CC2)cc1 | inactive |
| CN(C)c1cccc(Oc2nnnn2[C@H]2CO[C@H]3[C@@H]2OC[C@@H]3NC(=O)Nc2ccc(Oc3ccccc3)cc2)c1 | inconclusive: 31.6 µM [inhibitor, full curve] |
| CCc1cc(N2CCC(Oc3ccccc3OC)(C(=O)O)CC2)nc(C)n1 | inconclusive: 89.1 µM [inhibitor, single point] |
| COc1ccc(CN2CCC3(COc4ccccc4C(=O)N3)C2)cc1 (centres undefined) | inconclusive: 50.1 µM [inhibitor, partial curve, poor fit] |
| CCN(CC)c1ncccc1CNC(=O)c1ccc(C)s1 | inconclusive: 79.4 µM [inhibitor, partial curve, poor fit] |
| Cc1nc2cc(S(=O)(=O)N3CCOCC3)ccc2n1CCNC(=O)C1(C)CC1 | inactive |
| O=C(Cc1ccc(F)cc1)N1CCOCC2(CN(Cc3ccccc3)C2)C1 | active: 39.8 µM |
| O=C(c1cccc(-c2ccccn2)c1)N1CCN(C(=O)C2CCCC2)CC1 | inactive |
| O=C1OCC2(CCN(Cc3cccc(OC(F)(F)F)c3)C2)N1c1ccncc1 (centres undefined) | active: 100 µM |
| COc1ccccc1-c1cc(-c2c(C)noc2C)cc2c1C(=O)N(C)C2 | inconclusive: 63.1 µM [inhibitor, partial curve, poor fit] |
| Cc1cnc(-c2cccnc2)n1C1CCCN(C(=O)Nc2ccc3c(c2)OCCO3)C1 (centres undefined) | inactive |
| O=C(CN1C(=O)C(c2ccccc2)=NC12CCCCC2)NCc1ccccc1 | active: 44.7 µM |
| Cc1ccc2oc(C(=O)NC3CC(=O)N(C(C)C)C3)c(C)c2c1 (centres undefined) | inactive |
| COc1ccc(-c2noc(CC3CCN(C(=O)c4ccc(OC)nc4)CC3)n2)cc1 | inconclusive: 10 µM [inhibitor, full curve, poor fit] |

| Structure (SMILES) | Potency |
| --- | --- |
| Cn1cccc1CN1CCC2(CC1)CC(=O)c1ccc(Cl)cc1O2 | active: 44.7 µM |
| COCCN1CCCC[C@]2(C[C@H](CO)[C@H](c3ccccc3)N2C(=O)CC2CCCC2)C1=O | inconclusive: 50.1 µM [inhibitor, partial curve, poor fit] |
| CCc1cccc2c(C(CC(=O)NCCc3ccc(OC)c(OC)c3)c3cccc(F)c3)c[nH]c12 (centres undefined) | active: 28.2 µM |
| COc1ccc(Nc2ccnc(N3CCC(C(=O)N4CCN(C)CC4)CC3)n2)cc1 | inconclusive: 89.1 µM [inhibitor, single point] |
| CCOc1ccc2c(n1)CCN(C(=O)Nc1ccc(CC)cc1)C2 | inconclusive: 70.8 µM [inhibitor, partial curve, poor fit] |
| COc1cccc(-n2cc(CN(C)c3nccc(-c4cccnc4)n3)cn2)c1 | inconclusive: 50.1 µM [inhibitor, partial curve, poor fit] |
| O=C(C1CC1)N1CCN(C2CCN(Cc3ccccn3)C2=O)CC1 (centres undefined) | inactive |
| COc1ccc(-c2cn3cc(C(=O)NC4CC4)nc3s2)cc1 | inconclusive: 100 µM [inhibitor, partial curve, poor fit] |
| Cc1ccccc1CC(=O)N1C[C@@H](CO)[C@H](NC(=O)c2ccccc2)C1 | inactive |
| COc1ccc(-c2noc([C@@H]3CCCN3C(=O)COc3cccc(C)c3)n2)cc1OC | inconclusive: 79.4 µM [inhibitor, single point] |
| Cc1ccc(CN2CCC3(Cc4ccccc4NC3=O)C2)cc1 (centres undefined) | inconclusive: 126 µM [inhibitor, partial curve, poor fit] |
| CN(C)C[C@@H]1CN(Cc2cccnc2)C[C@H]1NC(=O)c1ccc(Cl)s1 | inconclusive: 50.1 µM [inhibitor, partial curve, poor fit] |
| CC(C)N1CC2CCC(C1)N2Cc1ccc(-c2ccsc2)cc1 | inconclusive: 56.2 µM [inhibitor, partial curve, poor fit] |
| O=C1Nc2ccccc2CC12CCN(Cc1cccc3ccccc13)C2 (centres undefined) | inconclusive: 56.2 µM [inhibitor, full curve, poor fit] |
| COc1ccccc1N1CCN(C2CCCN(C(=O)c3ccc4nc(C)[nH]c4c3)C2)CC1 (centres undefined) | inactive |
| O=C(c1ccccc1F)N1CCC(CCOc2ccccc2)C1 (centres undefined) | inconclusive: 56.2 µM [inhibitor, partial curve, poor fit] |
| CCOC(=O)c1cccc(NCC2=CC(C)(C)COc3ccc(OC)cc32)c1 | inconclusive: 28.2 µM [inhibitor, full curve] |
| COc1ccc2c(c1)C(C(=O)Nc1cc([S+](=O)([O-])N3CCOCC3)ccc1C)=CC(C)(C)CO2 | inconclusive: 44.7 µM [inhibitor, partial curve, poor fit] |
| COCC1CN(C)CC12CCN(C(=O)Cc1cccc(Cl)c1)CC2 (centres undefined) | active: 35.5 µM |
| O=C(COc1ccccc1)N1CCC(c2n[nH]c(=O)n2Cc2ccc(F)cc2)CC1 | inconclusive: 39.8 µM [inhibitor, single point] |
